Experimental data as given in paper PMC3661926 (Acta Neuropathologica, 2013).

Molecular target: α-syn oligomers (Homo sapiens, UniProt P37840)
Settings: 50 µM compound, αSyn 2,1 µM (αSyn alone 64.5%)
Description: Planar lipid bilayers were generated and analyzed in a Ionovation Compact (Ionovation, Osnabrück, Germany) by the painting technique. Two bath chambers (1.2 ml) separated by a Teflon-septum were filled with 250 mM KCl, 10 mM MOPS, pH = 7.2 (Merck, Darmstadt, Germany and Roth, Karlsruhe, Germany). Then, 2 μl of a 100 mg/ml-solution of purified azolectin in n-Decan (Ionovation, Osnabrück, Germany) were applied to a 120-μm pinhole in the septum. After 30 min incubation at room temperature, lipid was thinned out by repetitive lowering and re-raising of the buffer level until a bilayer was formed. This formation was monitored optically and by capacitance measurements. […] Measurements were performed using Ag/AgCl-electrodes connected to an EPC10-amplifier and Patchmaster software (HEKA, Lambrecht/Pfalz, Germany). The noise was ~0.5 pA at 3 kHz bandwidth. α-syn was incubated in 50 mM Tris–HCl, pH 7.0 with 1 % DMSO (Sigma-Aldrich, Taufkirchen, Germany) and 20 μM FeCl3 (Merck, Darmstadt, Germany) for 72 h at room temperature in a total volume of 200 μl. […] . After bilayer formation, α-syn was added in 20 μl aliquots to the cis chamber close to the membrane and the electrophysiological properties were monitored. Threshold for pore detection was set to 72 pS. If no pore formation was detected for 5 min, the next aliquot of the same sample was added as described previously.

With `O=c1cc(-c2ccccc2)oc2cc(O)c(O)c(O)c12` [baicalein] the “pore formation [%]” value was 12.5%.
